# Screen size: about 360,000 compounds; about 660 (0.18%) were called active. The shares of active, inactive and inconclusive entries below differ from those in the screen. The call rests on the fitted dose curve; in most records, active means well fitted inhibition curve with a large enough effect; inconclusive means small, poorly fitted or top-dose-only effect; inactive means no such curve, though single readings can be large or run the other way. Potencies of inconclusive entries are left out as doubtful fits.
# Target: Rap guanine nucleotide exchange factor 4 (Homo sapiens) (UniProt Q8WZA2)
# Chain of UniProt Q8WZA2 (Q8WZA2 whole entry, looked up): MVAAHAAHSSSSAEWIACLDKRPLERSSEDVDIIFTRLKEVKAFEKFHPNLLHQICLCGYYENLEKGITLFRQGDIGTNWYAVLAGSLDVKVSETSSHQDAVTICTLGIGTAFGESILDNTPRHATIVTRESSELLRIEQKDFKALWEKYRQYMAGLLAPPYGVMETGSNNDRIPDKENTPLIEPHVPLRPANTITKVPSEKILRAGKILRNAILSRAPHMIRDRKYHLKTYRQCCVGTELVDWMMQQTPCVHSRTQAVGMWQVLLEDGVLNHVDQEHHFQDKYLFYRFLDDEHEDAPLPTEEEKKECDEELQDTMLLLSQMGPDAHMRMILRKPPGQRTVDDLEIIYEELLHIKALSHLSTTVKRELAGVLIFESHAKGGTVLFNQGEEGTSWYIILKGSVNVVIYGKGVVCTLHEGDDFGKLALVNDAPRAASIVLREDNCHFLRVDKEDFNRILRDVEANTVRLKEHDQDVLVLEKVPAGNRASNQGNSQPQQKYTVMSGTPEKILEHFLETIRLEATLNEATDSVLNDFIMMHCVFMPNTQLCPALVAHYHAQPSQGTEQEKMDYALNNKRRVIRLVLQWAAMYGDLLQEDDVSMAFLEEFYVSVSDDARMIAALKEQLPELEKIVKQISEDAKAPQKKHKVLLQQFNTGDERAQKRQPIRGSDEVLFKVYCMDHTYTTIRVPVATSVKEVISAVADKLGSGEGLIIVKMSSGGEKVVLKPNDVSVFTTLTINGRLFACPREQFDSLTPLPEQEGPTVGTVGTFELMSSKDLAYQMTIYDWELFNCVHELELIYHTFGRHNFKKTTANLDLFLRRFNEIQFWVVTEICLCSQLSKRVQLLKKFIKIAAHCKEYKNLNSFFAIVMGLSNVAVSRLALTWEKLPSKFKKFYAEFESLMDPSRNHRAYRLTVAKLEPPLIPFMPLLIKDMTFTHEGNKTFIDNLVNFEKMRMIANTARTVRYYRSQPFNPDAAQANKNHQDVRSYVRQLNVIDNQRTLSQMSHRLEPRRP
# Assay: qHTS for Antagonist of cAMP-regulated guanine nucleotide exchange factor 2 (EPAC2): primary screen; further: nearly all actives have a fitted effect of over 45% in size
# Conditions: EPAC2 GEF exchange of Rap1B-BODIPY-GDP, fluorescence; series mostly up to 114 µM
# Potency means the concentration at half of the fitted maximal effect; tags describe the fitted curve by direction and shape.
row,Compound,Potency
1,Cc1nc2ccc(NC(=O)CCC3CCCC3)cc2s1,inactive
2,Cc1ccc(Cl)cc1N1CCN(Cc2nc3c(c(=O)[nH]c(=O)n3C)n2Cc2ccccc2F)CC1,"inconclusive [inhibitor, full curve]"
3,COc1ccc(NC(=O)c2sccc2C)c([N+](=O)[O-])c1,inactive
4,COC(=O)c1sc(OC)cc1OCc1ccc(C)cc1,"inconclusive [inhibitor, partial curve]"
5,CC(C)=C1CCC(C)CC1=NNC(N)=S (stereo unspecified),inactive
6,O=C(COC(=O)C1CC1)Nc1ccccc1Sc1ccccc1,active: 56.2 µM
7,CCOc1cc(CNc2ccc(O)cc2)ccc1OCc1ccc(Cl)cc1Cl,active: 35.5 µM
8,Cc1cccc(N(CC(=O)NCCc2ccccc2)C(=O)CCC(=O)Nc2ccccn2)c1C,"inconclusive [inhibitor, partial curve]"
9,CN(Cc1c(F)cccc1Cl)C(=O)CCc1c[nH]c2ccccc12,"inconclusive [inhibitor, partial curve]"
10,CCCc1ccc(C(O)c2ncc(-c3cccc(C)c3)[nH]2)cc1 (stereo unspecified),"inconclusive [inhibitor, partial curve]"
11,O=C1CSC(=Nc2ccc(Cl)cc2)N1Cc1ccco1,"inconclusive [inhibitor, single point]"
12,COc1ccc2c(c1)Cc1sc(NC(=O)c3cccs3)nc1-2,inactive
13,CC1CN(c2ccc(Oc3ccccc3)cc2)c2nc3c(c(=O)n(CC(N)=O)c(=O)n3C)n2C1 (stereo unspecified),"inconclusive [inhibitor, full curve]"
14,COc1ccc(CCNC(=O)C(=O)N/N=C/c2cccs2)cc1OC,inactive
15,O=[N+]([O-])c1ccccc1/C=C\C=N\N1CCN(c2ccccc2)CC1,inactive
16,O=S(=O)(Nc1c(S(=O)(=O)c2ccccc2)c2nc3ccccc3nc2n1C1CCCCC1)c1ccccc1,"inconclusive [inhibitor, single point]"
17,CCOC(=O)C1=NNC(C(=O)c2ccccc2)C1c1ccc(Cl)cc1 (stereo unspecified),"inconclusive [inhibitor, full curve]"
18,CCN(Cc1ccccc1)S(=O)(=O)c1ccc(C(=O)Nc2nnc(C3CC3)o2)cc1,"inconclusive [inhibitor, single point]"
19,CC(C)C[C@H](N)c1cn([C@@H](Cc2cc3ccccc3[nH]2)C(=O)N2CCNCC2)nn1,inactive
20,Cc1nc(-c2ccc(Cl)cc2)sc1C(=O)CBr,"inconclusive [inhibitor, full curve, poor fit]"
21,CC(=O)c1ccc(S(=O)(=O)N2CCCc3ccccc32)cc1,"inconclusive [inhibitor, full curve, poor fit]"
22,S=C1Nc2ccccc2CS1,inactive
23,COc1ccc(NC(=O)COc2ccccc2C#N)c(S(=O)(=O)N2CCCCC2)c1,"inconclusive [inhibitor, single point]"

row,Compound,Potency
1,Cc1ccc(Cn2ccsc2=NC(=O)CCl)cc1,"inconclusive [inhibitor, partial curve]"
2,Cc1ccc(S(=O)(=O)N2C[C@H]3C(=O)C[C@@H](c4ccccc4)N(S(=O)(=O)c4ccc(C)cc4)[C@H]3C[C@H]2c2cccc3ccccc23)cc1,"inconclusive [inhibitor, single point]"
3,CCCCn1c(NS(=O)(=O)c2ccccc2)c(S(=O)(=O)c2ccc(C)cc2)c2nc3ccccc3nc21,inactive
4,CC(C)CC1Nc2ncnc(N3CCOCC3)c2N(Cc2ccc(Cl)cc2)C1=O (stereo unspecified),"inconclusive [inhibitor, single point]"
5,C=Cc1ccc(CC2(C)C(=O)Nc3ccc(Cl)cc32)cc1 (stereo unspecified),"inconclusive [inhibitor, partial curve]"
6,Cc1ccc2c(c1)C(c1ccccc1)N(C(=O)c1ccc(Br)o1)CC(=O)N2 (stereo unspecified),"inconclusive [inhibitor, partial curve]"
7,Cc1c2cn[nH]c(=O)c2c(C)n1Cc1ccc(F)cc1,"inconclusive [inhibitor, full curve]"
8,CCCc1c(-c2ccc(Cl)cc2)ncn1CCc1ccccc1OC,"inconclusive [inhibitor, partial curve]"
9,Cc1nc2ccccc2c(=O)n1N(c1ccccc1)c1ccccc1,"inconclusive [inhibitor, partial curve]"
10,Cc1ccc(NC(=O)CNC(=O)c2ccco2)cc1,inactive
11,Cc1cc(C)cc(OC2CCCCC2NS(=O)(=O)c2ccccc2)c1 (stereo unspecified),"inconclusive [inhibitor, partial curve]"
12,CCOc1cc(/C=N/NC(=O)c2ccc(CN3CCOCC3)cc2)ccc1OC,inactive
13,COc1ccccc1NC(=O)C(C)N(C)Cc1ccc(Cl)s1 (stereo unspecified),"inconclusive [inhibitor, partial curve]"
14,Cc1cscc1-c1ccc(C(=O)Nc2c(C)cccc2C)o1,"inconclusive [inhibitor, full curve]"
15,O=C(Sc1nnc(-c2ccccc2)o1)N1c2ccccc2Sc2ccccc21,inactive
16,Cc1ccc(S(=O)(=O)N2CCc3ccccc3C2)cc1,"inconclusive [inhibitor, partial curve]"
17,O=C1CSC(c2ccc(Cl)cc2Cl)N1c1ccccn1 (stereo unspecified),active: 17.8 µM
18,CC1=C(C(=O)OCC2CCCO2)C(c2ccsc2)C2=C(CCCC2=O)N1 (stereo unspecified),"inconclusive [inhibitor, partial curve]"
19,CCSc1nc2sccc2c(=O)n1-c1ccccc1,"inconclusive [inhibitor, partial curve, poor fit]"
20,c1ccc(N2[C@@H]3c4ccccc4C[C@H]2c2ccccc23)cc1,"inconclusive [inhibitor, partial curve]"
21,CC1CCCC(NC(=O)c2ccc(COc3ccccc3)o2)C1C (stereo unspecified),"inconclusive [inhibitor, partial curve]"
22,O=S1(=O)CC2N=C(N(Cc3ccc(F)cc3Cl)c3ccccc3F)SC2C1 (stereo unspecified),inactive
23,COc1ccc(C(C)=O)cc1CC1(C)C(=O)Nc2ccc(-c3cccc(C(F)(F)F)c3)cc21 (stereo unspecified),"inconclusive [inhibitor, full curve]"

# — PubChem BioAssay AID720708 (National Center for Advancing Translational Sciences (NCATS), 2013)
